From paper PMC4559962
Results are given in words; binding and its absence hold for the method and conditions named. For some assays here: In cells and extracts the contact can be indirect. Some binding calls cover weakened binding; strength is not graded here. Tags and fused reporters may be left off the sequences shown. Each block holds one binder with its values, some of them ahead of it.

What was measured:
[1] = target: T1, HA-Wss1 (recombinant, wild type) (S. cerevisiae), P38838; test: non-reducing gel electrophoresis; recombinant HA-Wss1 (200 μg/ml) incubated at 25°C with OPA (0–3 mM); Coomassie staining; the oligomers disappear with DTT (disulfide linked); both purified; conditions: remark: other sources report otherwise
T1 chain: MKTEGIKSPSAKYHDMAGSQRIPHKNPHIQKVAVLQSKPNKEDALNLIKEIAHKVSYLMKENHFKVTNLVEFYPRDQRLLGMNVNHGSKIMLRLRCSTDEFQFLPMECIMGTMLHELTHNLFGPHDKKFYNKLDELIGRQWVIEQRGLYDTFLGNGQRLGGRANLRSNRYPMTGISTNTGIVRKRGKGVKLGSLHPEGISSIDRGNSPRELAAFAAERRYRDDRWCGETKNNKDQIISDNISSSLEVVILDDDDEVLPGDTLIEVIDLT

[2] = target: T2, HA-Wss1 (wild type, expressed in yeast) (S. cerevisiae) (UniProt P38838); test: co-IP; HA-Wss1 constructs expressed from pYEPGAP-URA3 in yeast; lysates (150 mM NaCl, 50 mM Tris pH 7.4, 0.5% Triton X-100, 30 mM NEM) on anti-HA beads, 1 hr at 4°C; western blot; DOA1-FLAG cells (Figure 5B) or wss1Δ cells treated with 0.2 μg/ml 4-NQO (Figure 8C)
T2 sequence: T1 chain

binding [1]: binds
B1: HA-Wss1 (recombinant, wild type), P38838 1-269 (enzyme)
chain: T1 chain

binding [2]: binds
B2: Doa1-FLAG (protein, UniProt P36037 1-715)
chain: MGYQLSATLKGHDQDVRDVVAVDDSKVASVSRDGTVRLWSKDDQWLGTVVYTGQGFLNSVCYDSEKELLLFGGKDTMINGVPLFATSGEDPLYTLIGHQGNVCSLSFQDGVVISGSWDKTAKVWKEGSLVYNLQAHNASVWDAKVVSFSENKFLTASADKTIKLWQNDKVIKTFSGIHNDVVRHLAVVDDGHFISCSNDGLIKLVDMHTGDVLRTYEGHESFVYCIKLLPNGDIVSCGEDRTVRIWSKENGSLKQVITLPAISIWSVDCMSNGDIIVGSSDNLVRIFSQEKSRWASEDEINELSTQVEKSTISSKTIEFDESKLSPYEILQSPGRKEGQIVVVKSPQGTIEAHQFSNSSWKKVGDVVGAGATGNDKKIEFEGKTYDYVFDVDIEDGKPPLKLPINVSDNPYTAADNFLARYELPMSYRDQVVQFILKNTNGISLDQPNDNASSSAVSPSKTSVMKVLPVKQYLIMENYNPDTIFNGIVKINSNEKTFDDEILAQIGGALHDIDESWELLLSFANTIRSNWEIKTPAYDIVRLIVKKLPYSSDIKDYIEEGLGNKNITLTMLTVRILVNCFNNENWGVKLLESNQVYKSIFETIDTEFSQASAKQSQNLAIAVSTLIFNYSALVTKGNSDLELLPIVADAINTKYGPLEEYQECEEAAYRLTVAYGNLATVEPTLRQFANSVTWLANIKRSYGNVPRFKDIFDDLS
